# Experimental data taken from PubChem BioAssay AID485294 (National Center for Advancing Translational Sciences (NCATS), 2010).
# Out of some 370,000 compounds screened, about 150 (0.041%) were called active. The inconclusive results got no clear call from the source; some entries with a clear call stand among them for comparison. Calls follow the shape of the dose curve; as a rule, active = well fitted inhibition curve with a large enough effect; inconclusive = small, poorly fitted or top-dose-only effect; inactive = flat fitted curve, though single readings scatter. No potency is given beside an inconclusive call; the fits are too rough.
# Target: Beta-lactamase (Escherichia coli (strain K12)) (UniProt P00811)
# Chain of UniProt P00811 (P00811 whole entry, looked up): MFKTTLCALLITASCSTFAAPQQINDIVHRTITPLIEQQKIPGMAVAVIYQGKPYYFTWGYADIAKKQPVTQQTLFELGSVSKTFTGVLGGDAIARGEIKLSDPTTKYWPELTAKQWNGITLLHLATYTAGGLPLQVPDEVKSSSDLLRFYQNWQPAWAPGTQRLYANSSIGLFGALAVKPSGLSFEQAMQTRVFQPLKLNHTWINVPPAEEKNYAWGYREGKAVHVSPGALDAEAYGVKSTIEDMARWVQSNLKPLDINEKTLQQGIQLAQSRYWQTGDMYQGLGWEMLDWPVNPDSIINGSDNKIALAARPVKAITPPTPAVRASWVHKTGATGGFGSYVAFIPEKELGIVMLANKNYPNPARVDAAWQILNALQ
# Experiment: qHTS Inhibitors of AmpC Beta-Lactamase (assay with detergent); also: nearly all actives have a fitted effect of over 25% in size
# Conditions: AmpC hydrolysis of nitrocefin, absorbance 480 nm, 0.01% Triton; series mostly up to 114 µM
# Summary of the method: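 AmpC (5.3 nM in the dispensed reagent) in 20 mM phosphate pH 7.0 with 0.01% (detergent screen) or 0.0001% Triton X-100 was preincubated with compounds for 15 min at room temperature. Nitrocefin was then added from an 800 uM solution, and hydrolysis was followed at 480 nm.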
# Potency is read from the fitted curve at half-maximal effect; tags tell the direction and shape of the fitted curve.
row,SMILES,Potency
1,COC(=O)NC1(C(F)(F)F)C(=O)NC(C)=C1C(=O)OC (stereo unspecified),"inconclusive [inhibitor, full curve, poor fit]"
2,N#Cc1c(N)n[nH]c1-c1cc2c([nH]1)CCCC2,"inconclusive [inhibitor, full curve]"
3,O=C(Nc1ccc([N+](=O)[O-])cc1Cl)c1cc(Cl)ccc1O,"inconclusive [inhibitor, full curve, poor fit]"
4,COc1ccc(NS(=O)(=O)c2cccc(C(=O)NNC(=O)c3ccc(=O)[nH]c3)c2)cc1,"inconclusive [inhibitor, full curve, poor fit]"
5,COc1cccc(NC(=O)Cn2c(=O)n(Cc3ccccc3)c(=O)c3c2c2cc(C)ccc2n3C)c1,inactive
6,CCN(CC)CCCNC(=O)CN1C(=O)CSc2ccc(S(=O)(=O)N3CCOCC3)cc21,"inconclusive [inhibitor, full curve, poor fit]"
7,CCC(C)n1c(SCC(=O)NCCc2ccc(S(N)(=O)=O)cc2)nc2ccsc2c1=O (stereo unspecified),"inconclusive [inhibitor, partial curve, poor fit]"
8,COc1cccc(Nc2nc(N)nc(-c3oc4ccccc4c3C)n2)c1,inactive
9,COc1ccccc1NC(=O)CSc1nc2nc(C)cc(C)c2c(=O)[nH]1,"inconclusive [inhibitor, single point]"
10,Cc1cc(C)c2oc(-c3cc(NC(=O)Cc4ccccc4)ccc3Cl)nc2c1,inactive
11,CC(C)=NOCc1ccc(-c2cn([C@@H]3COC[C@H]3O)nn2)cc1,"inconclusive [inhibitor, partial curve]"
12,Cc1cc(C(=O)Nn2c(-c3ccncc3)nc3ccccc3c2=O)ccc1[N+](=O)[O-],"inconclusive [inhibitor, single point]"
13,CCCOc1ccc(C2C(=O)N(C3CCCCCC3)CC(=O)N2Cc2ccc(OC)cc2)cc1OC (stereo unspecified),inactive
14,O=C1CN(C(=O)c2ccc(Br)o2)C(c2ccccc2)c2cc(F)ccc2N1 (stereo unspecified),"inconclusive [inhibitor, full curve, poor fit]"
15,COC(=O)Nc1c(-c2ccccc2)nc2ccccn12,"inconclusive [inhibitor, full curve, poor fit]"
16,CN(C)N=Nc1nc[nH]c1C(N)=O,"inconclusive [inhibitor, full curve, poor fit]"
17,CC(C)c1ccccc1OCCNS(C)(=O)=O,"inconclusive [inhibitor, partial curve, poor fit]"
18,Cc1cc(N(CCCl)CCCl)ccc1/C=N/NC(=O)c1ccco1,inactive
19,Cc1cc(C(F)(F)F)nn1CC(=O)N1CCCC1,"inconclusive [inhibitor, full curve, poor fit]"
20,COc1ccc(/C=C/C(=O)c2c(O)cc(C)oc2=O)c(OC)c1,inactive
21,O=C(/C=C/c1ccccc1)NC(NC(=S)Nc1cccc(O)c1)C(Cl)(Cl)Cl (stereo unspecified),"inconclusive [inhibitor, full curve, poor fit]"
22,Cc1cccc(C(=O)NCC(=O)N2CCCC2)c1,inactive

row,SMILES,Potency
1,CN(CC(=O)Nc1cccc(F)c1)CC(=O)Nc1ccccc1[N+](=O)[O-],inactive
2,CC1SC(C)C(=O)N(CC(=O)Nc2ccc3c(c2)OCO3)C1=O (stereo unspecified),"inconclusive [inhibitor, full curve]"
3,Nc1ccc(S(=O)(=O)N2CCCC2)cc1,"inconclusive [inhibitor, full curve, poor fit]"
4,Oc1c(C(c2ccccn2)N2CCCCC2)cc(Cl)c2cccnc12 (stereo unspecified),"inconclusive [inhibitor, full curve, poor fit]"
5,Cc1[nH]c(C)c(S(=O)(=O)Nc2ccccc2)c1C(=O)N1CCCC1,"inconclusive [inhibitor, full curve, poor fit]"
6,OCCNCc1ccc(-c2ccccc2)cc1,"inconclusive [inhibitor, single point]"
7,COc1ccccc1CNC(=O)CN(C)Cc1ccc(SC)cc1,"inconclusive [inhibitor, partial curve]"
8,Cc1ccc(NC(=O)CN2CCN(Cc3ccccc3)CC2)cc1F,"inconclusive [inhibitor, full curve]"
9,O=C(Nc1ccccc1)N1CCC(n2c(=O)[nH]c3ccccc32)CC1,"inconclusive [inhibitor, full curve, poor fit]"
10,Cc1onc(-c2ccccc2Cl)c1C(=O)NCc1ccccn1,"inconclusive [inhibitor, full curve, poor fit]"
11,CCN1CCN(C(=O)c2ccc3c(=O)n(CCc4ccccc4)c(=O)[nH]c3c2)CC1,"inconclusive [inhibitor, full curve, poor fit]"
12,COc1ccc(NC(=O)/C(=C/c2cccnc2)NC(=O)c2cccs2)cc1,"inconclusive [inhibitor, single point]"
13,O=C(Nc1ccccc1N1CCCC1)C1CCN(S(=O)(=O)c2ccc(F)cc2)CC1,"inconclusive [inhibitor, full curve, poor fit]"
14,OCCn1c(CSc2nc3ccccc3n2CCO)nc2ccccc21,"inconclusive [inhibitor, single point]"
15,CCC1CCCCN1C(=O)Cn1c(C(=O)OC)cc2sc(Cl)cc21 (stereo unspecified),"inconclusive [inhibitor, single point]"
16,CS(=O)(=O)N(CC(=O)N/N=C/c1cc([N+](=O)[O-])ccc1Cl)c1ccccc1,inactive
17,Cc1ccccc1NC(=O)C1CCN(S(=O)(=O)c2ccccc2)CC1,inactive
18,CC(=O)c1c(O)cc2n(c1=O)-c1ccc(Cl)cc1C2(C)C,"inconclusive [inhibitor, full curve]"
19,COC(=O)C1=C(C)N(Cc2ccccc2)C(=NCC2CC2)N[C@H]1c1ccc(Br)cc1,"inconclusive [inhibitor, full curve]"
20,CCCCOC(=O)CSc1nc2c(cc1C#N)C(=O)CC(C)(C)C2,inactive
21,O=C(CN1CCOc2ccccc21)NCc1ccc(Cl)cc1,"inconclusive [inhibitor, partial curve, poor fit]"
22,CCN(CC)S(=O)(=O)c1cccc(-c2nnc(SCC(=O)NC)n2CCc2ccccc2)c1,"inconclusive [inhibitor, partial curve, poor fit]"

row,SMILES,Potency
1,COc1ccc(/C=C(\C#N)C(=O)N2CCOCC2)cc1Br,inactive
2,CCC(=O)N1CCN(CCN=CC2=C(O)CC(C)(C)CC2=O)CC1,inactive
3,CCCc1cc(C(=O)Nc2cc(C)nn2-c2ccccc2)no1,"inconclusive [inhibitor, full curve, poor fit]"
4,O=C(COc1cc(O)c2c(=O)c3ccccc3oc2c1)OCc1ccccc1,"inconclusive [inhibitor, full curve, poor fit]"
5,O=S(=O)(c1cc(O)ccc1O)c1cccc2c(S(=O)(=O)c3cc(O)ccc3O)cccc12,inactive
6,Cc1cc(C(=O)N/N=C2\CC(=O)c3ccccc32)c(C)n1-c1ccccc1,inactive
7,CCOC(=O)CCC(=O)N(CCN(C(=O)CCC(=O)OCC)c1ccccc1)c1ccccc1,"inconclusive [inhibitor, partial curve, poor fit]"
8,COc1ccc(CNC2CCCC2)c(OC)c1OC,"inconclusive [inhibitor, full curve, poor fit]"
9,CCN(CC)c1ccc(C(=O)Nc2ccc3nc(N(CC)CC)cc(C)c3c2)cc1,inactive
10,Cc1ccccc1S(=O)(=O)Oc1ccc2ccc(O)cc2c1,"inconclusive [inhibitor, full curve, poor fit]"
11,Cc1nc2c3cc(F)ccc3n(Cc3ccccc3F)c2s1,"inconclusive [inhibitor, partial curve]"
12,Cc1cccc(C(=O)Nc2nc3ccc(S(C)(=O)=O)cc3s2)c1,"inconclusive [inhibitor, full curve]"
13,CCOC(=O)c1ccc(NC(=O)CCn2c(=O)oc3ccccc32)cc1,"inconclusive [inhibitor, full curve]"
14,CCOC1OC(=O)C(Cl)=C1Nc1cc(C)ccc1C (stereo unspecified),"inconclusive [inhibitor, single point]"
15,c1ccc(CCNCc2cccnc2)cc1,"inconclusive [inhibitor, single point]"
16,CCOc1c2ccc(C(=O)NCc3ccc4c(c3)OCO4)cc2nn1CCOC,"inconclusive [inhibitor, full curve]"
17,Cc1cc2c(c(=O)n1CCN(C)C)C(c1ccc(Cl)cc1)C(C#N)=C(N)O2 (stereo unspecified),"inconclusive [inhibitor, full curve, poor fit]"
18,O=C(Nc1ccc2c(c1)C(=O)N(c1ccccc1)C2=O)c1cccs1,"inconclusive [inhibitor, single point]"
19,CCC(=O)N1CCc2cc(S(=O)(=O)NC(C(=O)NC3CCCc4ccccc43)C(C)C)ccc21 (stereo unspecified),"inconclusive [inhibitor, full curve, poor fit]"
20,O=C(Cn1ncc2c(=O)oc3ccccc3c21)N1CCC(N2CCCCC2)CC1,"inconclusive [inhibitor, partial curve, poor fit]"
21,COCCn1c(SCC(=O)NCC2CCCO2)nc2c([nH]c3ccccc32)c1=O (stereo unspecified),"inconclusive [inhibitor, single point]"
22,Cc1onc(-c2c(F)cccc2Cl)c1C(=O)OCN1C(=O)c2ccccc2C1=O,"inconclusive [inhibitor, partial curve, poor fit]"
